Measured values from the supplement of paper PMC10126150.
Values marked as one replicate rest on one cluster of the flow cell; about a third of the high ones do not repeat.

These sequences were tested on ATP (assay: switch fluorescence ratio, 500 uM ATP over buffer (Cy3 cluster intensity, sum of 5 cycles each) (fold (ratio)); higher = stronger signal-on switching upon ATP binding; sequences stand for … in TCGTCGGCAGCGTCAGATGTGTATAAGAGACAGTTTTTTTTTTTTTTTTTTTTTTTTT…TC). Settings: aptamer strand: ATP DNA aptamer (quencher-CACCTGGGGGAGTATTGCGGAGGAAGG + anchor), 100 nM annealed; ATP concentration: 500 uM; one replicate.
In short: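 Between each of five buffer/ATP cycles, the flow-cell was stripped with NaOH and re-annealed. Each cycle imaged Cy3-labelled switching-strand clusters, annealed to 100 nM quencher-labelled ATP aptamer on a modified Illumina MiSeq flow-cell, first in selection buffer and then after 15 min with 500 uM ATP at 22 °C. The fluorescence ratio is summed target-cycle over summed buffer-cycle Cy3 intensity per cluster, averaged per switch-domain sequence, with clusters outside 100-1000 RFU excluded.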
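Further: ATP exposure 15 min at 22 °C before imaging.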

| Sequence | switch fluorescence ratio |
| --- | --- |
| GAATACGATC | 1.08 |
| GAATAGCCGC | 1.05 |
| GAATAGGGAA | 0.97 |
| GAATAGGTTG | 0.963 |
| GAATATCGTC | 0.956 |
| GAATCACGGC | 1.08 |
| GAATCAGATT | 0.969 |
| GAATCATCTG | 1.02 |
| GAATCCCCAT | 1.03 |
| GAATCCTGGA | 0.993 |
| GAATCGAGTC | 0.979 |
| GAATCTGTAG | 1.01 |
| GAATGAGACG | 0.993 |
| GAATGAGCAA | 1.71 |
| GAATGATGTG | 0.993 |
| GAATGCTCTT | 0.998 |
| GAATGTCTTT | 0.987 |
| GAATGTGCCG | 1.01 |
| GAATTAACA | 1.02 |
| GAATTACACA | 1.02 |
| GAATTCCCCG | 1.22 |
| GAATTCGGGG | 0.989 |
| GAATTGCTTT | 1.03 |
| GAATTGGCG | 0.986 |
| GAATTGTGTT | 1.01 |

| Sequence | switch fluorescence ratio |
| --- | --- |
| GAATTTCGCT | 1.04 |
| GACAAAAAAT | 0.93 |
| GACAAGACAG | 1.02 |
| GACAAGACGG | 1.14 |
| GACAAGGAAG | 1.01 |
| GACAATCAAG | 0.998 |
| GACACGACTT | 1.03 |
| GACACGCTGG | 1.04 |
| GACACGTGAG | 1 |
| GACACTGCAA | 3.98 |
| GACAGCCGGC | 1.08 |
| GACAGCCTAC | 1.89 |
| GACAGTGACG | 1.09 |
| GACAGTTTCG | 1 |
| GACATAGGCG | 1.03 |
| GACATATGCG | 1.05 |
| GACATCGAAC | 1.13 |
| GACATCGACA | 1.01 |
| GACATCTTCA | 1.05 |
| GACCAAACGT | 1.44 |
| GACCAGGAAG | 0.933 |
| GACCAGGGGT | 1.19 |
| GACCAGTGAG | 1.04 |
| GACCCCACTC | 1.34 |
| GACCCCCGTA | 1.09 |

| Sequence | switch fluorescence ratio |
| --- | --- |
| GACCCTATTT | 1.04 |
| GACCGACTAG | 1.12 |
| GACCGAGGGC | 0.973 |
| GACCGCGCGC | 1.01 |
| GACCGGAAGA | 1.09 |
| GACCGGCGAG | 0.988 |
| GACCGGGGG | 1.12 |
| GACCGTACGT | 1.31 |
| GACCGTCATA | 1.07 |
| GACCTAACAC | 1.15 |
| GACCTCTCCG | 1.98 |
| GACCTGGTAT | 0.988 |
| GACCTTCTAT | 1.14 |
| GACGAAACCC | 1.39 |
| GACGAAACTA | 1.36 |
| GACGAAAGTG | 1.01 |
| GACGAAGGTT | 1.02 |
| GACGACATTG | 1.02 |
| GACGATACTG | 1.1 |
| GACGATCACC | 1.5 |
| GACGATGTCG | 0.926 |
| GACGCCAGAT | 1.39 |
| GACGCGATGA | 2.73 |
| GACGCTGGTG | 1.03 |
| GACGGAGTTA | 1.09 |

| Sequence | switch fluorescence ratio |
| --- | --- |
| GACGGATATG | 1 |
| GACGGATTCA | 0.973 |
| GACGGTAATA | 1.55 |
| GACGGTGGTA | 0.973 |
| GACGTACGCA | 2.2 |
| GACGTCTAAG | 0.992 |
| GACGTGAAGA | 1.04 |
| GACGTGAGAG | 1.09 |
| GACTAAACGT | 1.46 |
| GACTAACCCG | 1.11 |
| GACTAATAGA | 1.02 |
| GACTATAAAA | 0.951 |
| GACTATACCC | 1.33 |
| GACTATCCGG | 0.981 |
| GACTCAGGTG | 2.79 |
| GACTCATTTC | 1.17 |
| GACTCCAAGT | 0.999 |
| GACTCCTGGA | 1.05 |
| GACTCGTGCA | 1.09 |
| GACTGAAGAC | 1.23 |
| GACTGACTGT | 1.09 |
| GACTGCTG | 0.97 |
| GACTGGTTAG | 0.994 |
| GACTGTAGGG | 1.02 |
| GACTTCCACG | 1.04 |

| Sequence | switch fluorescence ratio |
| --- | --- |
| GACTTCCCGC | 2.6 |
| GACTTCGGG | 0.957 |
| GACTTGTGGA | 0.969 |
| GACTTTCGTC | 0.978 |
| GACTTTTTTA | 1.06 |
| GAGAAAAAGC | 1.04 |
| GAGAAAAGCA | 1.03 |
| GAGAAATCTA | 1.01 |
| GAGAACATCA | 1.01 |
| GAGAACATTG | 1.02 |
| GAGAACGCAT | 1.31 |
| GAGAAGGTGC | 1.19 |
| GAGAAGTAAT | 0.985 |
| GAGAATACGC | 0.991 |
| GAGAATTTTT | 0.975 |
| GAGACAGAAG | 1.03 |
| GAGACAGTAC | 2.83 |
| GAGACCAATG | 0.939 |
| GAGACCAGGA | 1.08 |
| GAGACCGGCA | 1.02 |
| GAGACCTCT | 1 |
| GAGACGCTAA | 1.28 |
| GAGACGGGCT | 1.02 |
| GAGAGAACCT | 1.8 |
| GAGAGAATAT | 0.95 |

| Sequence | switch fluorescence ratio |
| --- | --- |
| GAGAGAGCAC | 1.01 |
| GAGAGATAGG | 1.05 |
| GAGAGATTCT | 1.01 |
| GAGAGCCGT | 0.917 |
| GAGAGGAGGA | 1.07 |
| GAGAGGATAT | 0.962 |
| GAGAGTAGC | 1.02 |
| GAGAGTATG | 0.975 |
| GAGAGTCGTG | 1.02 |
| GAGAGTGAAA | 1.03 |
| GAGAGTGGCT | 0.991 |
| GAGAGTTGAT | 0.969 |
| GAGATAAAG | 1.02 |
| GAGATAAATC | 1.03 |
| GAGATAACTT | 1.03 |
| GAGATACATT | 1.03 |
| GAGATAGCGG | 1 |
| GAGATATGGG | 1.02 |
| GAGATCGTAG | 1.08 |
| GAGATGCTCC | 1.1 |
| GAGATGTTGT | 1 |
| GAGATTAGTG | 0.992 |
| GAGATTCGTT | 1 |
| GAGATTGGTA | 1.03 |
| GAGATTGTCG | 1.05 |

| Sequence | switch fluorescence ratio |
| --- | --- |
| GAGCAAACGG | 1.21 |
| GAGCAAGTAA | 1.25 |
| GAGCACTCGG | 1.01 |
| GAGCAGAGGA | 0.992 |
| GAGCAGGAGA | 0.997 |
| GAGCAGTTGG | 1.03 |
| GAGCAGTTGT | 0.955 |
| GAGCATAATC | 1.26 |
| GAGCATCGCA | 1.06 |
| GAGCCCATAA | 0.984 |
| GAGCCCGAAT | 0.998 |
| GAGCCGGCAG | 1.06 |
| GAGCCGTGGC | 0.96 |
| GAGCGACGGT | 0.977 |
| GAGCGGGACT | 1.41 |
| GAGCGGTAAG | 0.991 |
| GAGCGGTGAT | 1.01 |
| GAGCTACAGT | 1.01 |
| GAGCTACATT | 1.05 |
| GAGCTAGAGT | 1.04 |
| GAGCTAGGA | 0.985 |
| GAGCTGAGGG | 0.992 |
| GAGCTGATGT | 1 |
| GAGCTGCCCG | 0.928 |
| GAGCTGTAAG | 0.977 |

| Sequence | switch fluorescence ratio |
| --- | --- |
| GAGCTTGATA | 1.04 |
| GAGGAACTTT | 1.01 |
| GAGGAGGTA | 0.968 |
| GAGGAGTTAG | 1.02 |
| GAGGATAAAC | 0.998 |
| GAGGATAACA | 0.994 |
| GAGGCAGCAC | 2.16 |
| GAGGCATAGT | 1.18 |
| GAGGCTTTTC | 1.11 |
| GAGGGATCGA | 0.936 |
| GAGGGATTAG | 1.04 |
| GAGGGCTCAT | 1.06 |
| GAGGGCTTCA | 1.05 |
| GAGGGGAATG | 0.994 |
| GAGGGGGAC | 0.984 |
| GAGGGTACGT | 1.03 |
| GAGGGTTGAG | 0.986 |
| GAGGTACGAA | 0.976 |
| GAGGTATAGT | 1.01 |
| GAGGTATTGT | 0.932 |
| GAGGTCACGT | 1.05 |
| GAGGTCAGGG | 0.965 |
| GAGGTCGACA | 1.06 |
| GAGGTCGGTG | 1.01 |
| GAGGTGATTC | 0.997 |
